# In PubChem BioAssay AID686979 (National Center for Advancing Translational Sciences (NCATS), 2013):
# Several values for one entry are separate records, joined by “and”; a condition that tells them apart may be missing. Equal entries are not always repeated. About 50,000 (12%) of roughly 420,000 compounds were called active. The shares of active, inactive and inconclusive entries below differ from those in the screen. Calls follow the shape of the dose curve; as a rule, active = well fitted inhibition curve with a large enough effect; inconclusive = small, poorly fitted or top-dose-only effect; inactive = flat fitted curve, though single readings scatter. Potencies of inconclusive entries are left out as doubtful fits. Some compounds were tested as several samples or in several runs, with calls that do not always agree.
# Test: qHTS for Inhibitors of human tyrosyl-DNA phosphodiesterase 1 (TDP1): qHTS in cells in presence of CPT; also: nearly all actives have a fitted effect of over 55% in size
# Conditions: chicken DT40 Tdp1-/-;hTDP1 cells + 20 nM CPT, ATP luminescence, 48 h; activity change, negative = growth inhibition: at 46.2 µM (top of the series)
# Procedure, shortened: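 Chicken DT40 Tdp1-/- cells stably complemented with human TDP1 were seeded at 400 cells/well in medium containing 20 nM camptothecin, exposed to pin-transferred compounds, and grown at 37 °C for at least 48 hr. Viability was read as ATP luminescence.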
# % is scaled to controls: 0 for no effect and ±100 for the full control effect; potency is read from the fitted curve at half-maximal effect; tags tell the direction and shape of the fitted curve.
SMILES,Potency,"activity change, negative = growth inhibition"
O=C(Nc1ccc(S(=O)(=O)N2CCCC2)cc1)C1CC(=O)N(c2ccc(F)cc2)C1 (stereo not drawn),"inconclusive [inhibitor, single point]",–
COc1ccc(OCCNC(=O)C2(C)CCN2Cc2ccc(SC)cc2)cc1 (stereo not drawn),"inconclusive [inhibitor, single point]",–
CC(CCc1ccccc1)NC(=O)C1CCN(c2nnc(-n3cccc3)s2)CC1 (stereo not drawn),"inconclusive [inhibitor, single point]",–
Cc1cc(C)cc(CC(=O)N2CCC2(C)C(=O)NS(=O)(=O)c2ccc(Br)cc2)c1 (stereo not drawn),–,inactive: -2.54%
CCOc1ccc2oc(C(=O)OCC(=O)N3CCCC(C)C3)c(C)c2c1 (stereo not drawn),"inconclusive [inhibitor, full curve, poor fit]",–
O=c1[nH]nc(CNc2ccc(C(F)(F)F)cc2)c2ccccc12,active: 11.6 µM,–
Cc1ccc(C(=O)C2C(=O)c3ccccc3C2=O)cc1,–,inconclusive: -36.1% [inhibitor]
CCOC(=O)c1ccc(NC(=O)Cc2noc3ccc(C)cc23)cc1,active: 20.6 µM,–
Cn1cc(S(=O)(=O)N2CCCC2)cc1C(=O)Nc1ccc(F)cc1F,"inconclusive [inhibitor, single point]",–
Nc1ccc2nc(-c3ccc(N)c(Cl)c3)[nH]c2c1,active: 6.51 µM,–
CC(C)(C)C(C(=O)NCc1ccccc1)N1CCN(C(=O)C2CCCO2)CC1 (stereo not drawn),–,inactive: -4.53%
O=C(CCCCCn1c(=O)[nH]c2ccccc2c1=O)N1CCN(c2cccc(C(F)(F)F)c2)CC1,active: 0.58 µM,–
Cc1ccc(CNC(=O)CCCCCn2c(=O)c3sccc3n(CC(=O)N3CCCCC3C)c2=O)cc1 (stereo not drawn),"inconclusive [inhibitor, single point]",–
O=S(=O)(NCCNC/C=C/c1ccc(Br)cc1)c1cccc2cnccc12,active: 18.7 µM,–
COc1ccc(N2CC(O)=C(c3nc(-c4ccccc4)cs3)C2=N)cc1,"inconclusive [inhibitor, single point]",–
O=c1c2ccccc2nc(SCc2ccc([N+](=O)[O-])cc2)n1CCCO,active: 10.3 µM,–
CCCCC12CN3CC(C)(CN(C1)C3c1ccc(OCc3ccccc3)cc1)C2=O (stereo not drawn),"inconclusive [inhibitor, single point]",–
COc1cccc(NC(=O)CCC2CCN(C(=O)c3sccc3C)CC2)c1,active: 20.6 µM,–
CCN(CC)CCC(=O)Nc1cccc2c1C(=O)c1ccccc1C2=O,active: 11.6 µM,–
CCOc1ccc(C(=O)CN2CCN(S(=O)(=O)c3ccc(Br)cc3)CC2)cc1,–,inconclusive: -32.9% [inhibitor]
OCC1OC(n2cnc3c(=S)nc[nH]c32)C(O)C1O (stereo not drawn),inactive and active: 10 µM,–
COc1ccc(Cn2c(=O)[nH]c3cc(C(=O)NCCCN4CCCCCC4)ccc3c2=O)cc1,–,inactive: 11.1%
CCNC(=S)N/N=C(\C)c1cccc(C(F)(F)F)c1,"inconclusive [inhibitor, partial curve]",–
Cc1cccc(N2CN(Cc3ccco3)CNC2=S)c1C,–,inactive: -2.16%

SMILES,Potency,"activity change, negative = growth inhibition"
COC(=O)C1OC2(OC1C(=O)OC)c1ccccc1-c1ccccc12 (stereo not drawn),–,inactive: 15.5%
Cn1c(=O)c2cc(NC(=O)NCCc3ccccc3)ccc2n1Cc1ccc(F)cc1,"inconclusive [inhibitor, single point]",–
C[C@H](NC(=O)/C(C#N)=C/c1ccc(O)c(O)c1)c1ccccc1,active: 18.8 µM,–
Nc1nc2c(nc(Sc3ccc(Cl)cc3)n2C2OC(CO)C(O)C2O)c(=O)[nH]1 (stereo not drawn),"inconclusive [inhibitor, single point]",–
Cc1ccc(NCCC(=O)c2cccc([N+](=O)[O-])c2)c(C)c1,active: 8.2 µM,–
FC(F)(F)c1cc(-c2ccco2)nc(NCc2ccc(Cl)cc2)n1,–,inconclusive: -35% [inhibitor]
CCOC(=O)N1Cc2cc3ccccc3nc2C1,"inconclusive [inhibitor, single point]",–
CCN(C(=O)Cn1c(C(=O)OC)cc2sccc21)c1cccc(C)c1,active: 23.1 µM,–
N#C/C(=C\c1c[nH]c2ccccc12)C(=O)NCC1CCCO1 (stereo not drawn),–,inactive: 15.8%
CCc1ccc2[nH]c(=O)c(CN(CCN3CCOCC3)C(=O)Nc3ccccc3F)cc2c1,"inconclusive [inhibitor, single point]",–
CCN(CC)C(=O)C(=O)c1cn(CCOc2ccccc2)c2ccccc12,"inconclusive [inhibitor, single point]",–
Cc1cc(C)nc(SC2CC(=O)N(c3ccc(Br)cc3)C2=O)n1 (stereo not drawn),"inconclusive [inhibitor, single point]",–
O=c1[nH][nH]c(-c2ccccc2O)c1C(C[N+](=O)[O-])c1ccc(Cl)cc1Cl (stereo not drawn),"inconclusive [inhibitor, partial curve]",–
COc1ccc(/C=C/C(=O)NCc2ccccn2)cc1OC,–,inactive: -8.81%
Cc1ccccc1NC(=O)c1sc2nc(-c3cc4ccccc4oc3=O)[nH]c(=O)c2c1C,active: 8.2 µM,–
Cc1cc(C)c[n+](CC(=O)c2ccc(-c3ccccc3)cc2)c1,active: 18.4 µM,–
Cc1nc(-c2ccc(S(=O)(=O)N3CCN(c4ccccc4F)CC3)cc2)co1,"inconclusive [inhibitor, partial curve]",–
CCc1nc2c(OCc3ccccc3C)cccn2c1N(C)C(=O)C(C)C,active: 18.4 µM,–
O=C(COc1ccc(Cl)cc1)NCc1nnc(SCC(=O)Nc2ccccc2)o1,–,inactive: -23.4%
Cc1ccccc1NC(=O)c1c(C)oc2ccc(O)c(CN3CCCCCC3)c12,active: 23.1 µM,–
Cc1ccc(C(O)Cn2nc(C)cc2C)cc1 (stereo not drawn),"inconclusive [inhibitor, single point]",–
CCOCCCNC(=O)CSCc1nc(-c2ccc(SC)cc2)oc1C,"inconclusive [inhibitor, single point]",–
CN1c2ccccc2C(O)=C(C(=O)Nc2ccccc2)S1(=O)=O,"inconclusive [inhibitor, single point]",–
CC1CCN(C(=O)CSCC(=O)Nc2nc(-c3cccs3)cs2)CC1,"inconclusive [inhibitor, single point]",–
